Results reported in PubChem BioAssay (NCATS).
The shares of active, inactive and inconclusive entries below differ from those in the screen. Potencies beside an inconclusive call are fits to weak or partial responses and may not hold up. The source made the active and inactive calls. Calls come from the whole dose curve; as a rule, active = well fitted curve in the direction sought with a large enough effect; inconclusive = small, poorly fitted or top-dose-only effect, or another doubt; inactive = no such curve, though single readings can be large; an effect the other way counts as inactive or inconclusive.

Columns and labels:
[1] = P-glycoprotein substrates identified in KB-8-5-11 adenocarcinoma cell line, qHTS therapeutic library screen (AID 1346987); note: nearly all actives have a fitted effect of over 65% in size; for activity change, negative = cytotoxicity: % is set by controls: 0 for no effect and ±100 for the full control effect
How it was run: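 P-gp-mediated resistance screen: KB-8-5-11 cells treated 72 h with compounds in dose-response. CellTiter-Glo viability.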

HaCat = experiment: Cytotoxic Profiling of Annotated Libraries Using Quantitative High-Throughput Screening (AID 1296008); details: Five cell lines viability, CellTiter-Glo ATP luminescence, 48-72 h; max response: active compounds read low; note: nearly all actives have a fitted effect of over 60% in size; for max response: % is set by controls: 0 for no effect and ±100 for the full control effect
How it was run: (§1)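 Cytotoxicity was measured as CellTiter-Glo ATP luminescence, read after 10 min at room temperature. Compound treatment of the cells lasted 48 or 72 hr at 37 degrees Celsius in a qHTS format.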

KB-3-1 = experiment: as above; details: Five cell lines viability, CellTiter-Glo ATP luminescence, 48-72 h; max response: active compounds read low
How it was run: as §1

CASKI = experiment: Primary qHTS to identify gynecologic anti-cancer compounds using libraries of approved drugs and bioactive compounds (AID 1345084); details: Gynecologic cancer cell panel viability, ATPlite luminescence, 48 h; series mostly up to 57.5 µM; note: nearly all actives have a fitted effect of over 55% in size; for activity change, negative = cytotoxicity: % is set by controls: 0 for no effect and ±100 for the full control effect
How it was run: (§2)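 In this quantitative HTS, cell killing is estimated from loss of ATP-dependent luciferase light. Cells see five compound concentrations over a 48 h exposure.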

OV90 = experiment: as above; details: Gynecologic cancer cell panel viability, ATPlite luminescence, 48 h; series mostly up to 57.5 µM
How it was run: as §2

C33A = experiment: as above; details: Gynecologic cancer cell panel viability, ATPlite luminescence, 48 h; series mostly up to 57.5 µM
How it was run: as §2

CAOV3 = experiment: as above; details: Gynecologic cancer cell panel viability, ATPlite luminescence, 48 h; activity change, negative = cytotoxicity: at 57.5 µM (top of the series)
How it was run: as §2

Es-2 = experiment: as above; details: Gynecologic cancer cell panel viability, ATPlite luminescence, 48 h; series mostly up to 57.5 µM
How it was run: as §2

HeLa = experiment: as above; details: Gynecologic cancer cell panel viability, ATPlite luminescence, 48 h; activity change, negative = cytotoxicity: at 57.5 µM (top of the series)
How it was run: as §2

Hek293T = experiment: as above; details: Gynecologic cancer cell panel viability, ATPlite luminescence, 48 h, control line for the selectivity index; activity change, negative = cytotoxicity: at 57.5 µM (top of the series) unless noted
How it was run: as §2

PA-1 = experiment: as above; details: Gynecologic cancer cell panel viability, ATPlite luminescence, 48 h; series mostly up to 57.5 µM
How it was run: as §2

[2] = Primary qHTS for inhibitors of nuclear receptor binding SET domain protein 2 (NSD2) in an isogenic RCH-ACV NSD2 p.E1099K mutant (9B) (AID 1645876); note: nearly all actives have a fitted effect of over 70% in size
[3] = Primary fluorescence-based thiol-reactive (MSTI) qHTS assay for identification of artifact compounds. (AID 1845221);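 note: thiol-reactive compounds lower the probe fluorescence signal; nearly all actives have a fitted effect of over 65% in size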
How it was run: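 One-hour, room-temperature, dark incubation of compound with 4 uM MSTI in PBS (pH 7.4, 2% DMSO) precedes a fluorescence read at 525 nm excitation, 598 nm emission; Hill-equation fitting yields concentration-response values.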

JEG-3 = experiment: Primary qHTS to identify gynecologic anti-cancer compounds using libraries of approved drugs and bioactive compounds (AID 1345084); details: Gynecologic cancer cell panel viability, ATPlite luminescence, 48 h; series mostly up to 57.5 µM; note: nearly all actives have a fitted effect of over 55% in size; for activity change, negative = cytotoxicity: % is set by controls: 0 for no effect and ±100 for the full control effect
How it was run: as §2

SKOV3 = experiment: as above; details: Gynecologic cancer cell panel viability, ATPlite luminescence, 48 h; series mostly up to 57.5 µM
How it was run: as §2

Tov-21-G = experiment: as above; details: Gynecologic cancer cell panel viability, ATPlite luminescence, 48 h; activity change, negative = cytotoxicity: at 57.5 µM (top of the series) unless noted
How it was run: as §2

Tov112D = experiment: as above; details: Gynecologic cancer cell panel viability, ATPlite luminescence, 48 h; series mostly up to 57.5 µM
How it was run: as §2

[4] = Primary qHTS for inhibitors of nuclear receptor binding SET domain protein 2 (NSD2) in an RCH-ACV wild type WT cells (2C) (AID 1645877); details: activity change, negative = cell killing: at 44.9 µM (top of the series) unless noted; note: nearly all actives have a fitted effect of over 70% in size
[5] = Primary redox qHTS assay for identification of artifact compounds. (AID 1845223); details: Amplex Red/HRP redox cycling with DTT, fluorescence; redox activity (% of DA3003): at 53.8 µM (top of the series);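 for redox activity (% of DA3003): 0% = DMSO and 100% = reference compound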
How it was run: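 Amplex Red (25 uM) and HRP (250 mU/mL) in HBSS, with compounds for 15 min, then 250 uM DTT for 30 min, room temperature, dark. Fluorescence 525/598 nm read; normalized to DMSO and 10 uM DA3003; Hill fit.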
Potency is the fitted concentration of half-maximal effect; tags give direction and shape of the fitted curve.

O=C(C1OC1/C=C/c1ccc2c(c1)OCO2)N1CCCCC1 (stereo not given)
inactive: Potency [1] | outcome (HaCat) | max response (KB-3-1) 5.97% | Potency (CASKI) | Potency (OV90)

Clc1ccc(Nc2nc3ccccc3c3nc(C4CCCCC4)[nH]c23)cc1Cl
inconclusive: Potency (HaCat) 29.1 µM [inhibitor, single point] | Potency (KB-3-1) 23.1 µM [inhibitor, single point] | Potency (C33A) 35.5 µM [cytotoxic, single point] | Potency (CAOV3) 28.2 µM [cytotoxic, single point] | Potency (Es-2) 35.5 µM [cytotoxic, partial curve, poor fit] | Potency (HeLa) 39.8 µM [cytotoxic, single point] | Potency (Hek293T) 39.8 µM [cytotoxic, single point] | Potency (OV90) 22.4 µM [cytotoxic, single point] | Potency (PA-1) 22.4 µM [cytotoxic, single point]

CCC(CC)n1ccc2c(C(=O)NCc3c(C)cc(C)[nH]c3=O)cc(C#N)cc21
inactive: Potency [2] | outcome (HaCat) | max response (KB-3-1) 2.42% | Potency (CAOV3) | Potency (CASKI)

CN(C)C/C=C/C(=O)Nc1cccc(C(=O)Nc2cccc(Nc3ncc(Cl)c(-c4c[nH]c5ccccc45)n3)c2)c1
inconclusive: Potency (C33A) 28.2 µM [cytotoxic, partial curve, poor fit] | Potency (CAOV3) 35.5 µM [cytotoxic, partial curve, poor fit] | Potency (Hek293T) 3.16 µM [cytotoxic, full curve, poor fit] | Potency (JEG-3) 3.98 µM [cytotoxic, partial curve, poor fit] | Potency (OV90) 1.12 µM [cytotoxic, full curve, poor fit] | Potency (SKOV3) 25.1 µM [cytotoxic, partial curve, poor fit] | Potency (Tov-21-G) 10 µM [cytotoxic, partial curve, poor fit]
inactive: Potency [3]
active: Potency (HaCat) 4.61 µM | Potency (KB-3-1) 1.03 µM | Potency (CASKI) 1.58 µM | Potency (Es-2) 8.91 µM | Potency (HeLa) 2 µM | Potency (PA-1) 2.82 µM | Potency (Tov112D) 1.26 µM

Cc1noc(-c2ccc(-c3ccc(CC(=O)O)cc3)cc2)c1NC(=O)O[C@H](C)c1ccccc1Cl
inconclusive: Potency [2] 20.5 µM [inhibitor, single point] | Potency [4] 20.5 µM [inhibitor, single point] | Potency (HaCat) 29.1 µM [inhibitor, single point] | Potency (KB-3-1) 23.1 µM [inhibitor, single point]
inactive: Potency (Hek293T) | Potency (OV90)

CC(C)CC(=O)c1c(O)cc2c(c1O)C(CC(C)C)C1=C(O2)C(C)(C)C(=O)C(C)(C)C1=O (stereo not given)
active: Potency [2] 10 µM | Potency [4] 7.96 µM
inconclusive: Potency [1] 14.2 µM [inhibitor, single point] | Potency [3] 2.32 µM [inhibitor, full curve] | Potency [5] 13 µM [activator, partial curve] | Potency (HaCat) 14.2 µM [inhibitor, single point] | Potency (KB-3-1) 7.96 µM [inhibitor, single point] | Potency (C33A) 17.8 µM [cytotoxic, single point] | Potency (CAOV3) 20 µM [cytotoxic, single point] | Potency (CASKI) 20 µM [cytotoxic, single point] | Potency (HeLa) 8.91 µM [cytotoxic, partial curve, poor fit] | Potency (Hek293T) 12.6 µM [cytotoxic, single point] | Potency (PA-1) 17.8 µM [cytotoxic, single point] | Potency (SKOV3) 12.6 µM [cytotoxic, single point] | Potency (Tov-21-G) 11.2 µM [cytotoxic, single point] | Potency (Tov112D) 17.8 µM [cytotoxic, single point]

CN(C)c1nc(NC2CCC(NC(=O)c3ccc(F)c(F)c3)CC2)nc2ccccc12 (stereo not given)
active: Potency [1] 20.6 µM | Potency [2] 6.49 µM | Potency (KB-3-1) 23.1 µM | Potency (Hek293T) 28.2 µM | Potency (OV90) 11.2 µM | Potency (PA-1) 14.1 µM
inconclusive: Potency (HaCat) 29.1 µM [inhibitor, single point] | Potency (C33A) 28.2 µM [cytotoxic, single point] | Potency (CAOV3) 39.8 µM [cytotoxic, single point] | Potency (Es-2) 35.5 µM [cytotoxic, single point] | Potency (HeLa) 39.8 µM [cytotoxic, single point] | Potency (JEG-3) 28.2 µM [cytotoxic, single point] | Potency (SKOV3) 39.8 µM [cytotoxic, single point] | Potency (Tov-21-G) 28.2 µM [cytotoxic, single point] | Potency (Tov112D) 35.5 µM [cytotoxic, single point]
inactive: Potency (CASKI)

COCCNCc1ccc(-c2cc3nccc(Oc4ccc(NC(=S)NC(=O)Cc5ccc(F)cc5)cc4F)c3s2)nc1
inconclusive: Potency [2] 2.63 µM [inhibitor, full curve, poor fit] | Potency (HaCat) 29.1 µM [inhibitor, single point] | Potency (KB-3-1) 20.6 µM [inhibitor, single point] | Potency (C33A) 35.5 µM [cytotoxic, single point] | Potency (CAOV3) 39.8 µM [cytotoxic, single point] | Potency (Es-2) 39.8 µM [cytotoxic, single point] | Potency (HeLa) 39.8 µM [cytotoxic, single point] | Potency (Hek293T) 39.8 µM [cytotoxic, single point] | Potency (OV90) 8.91 µM [cytotoxic, partial curve] | Potency (SKOV3) 39.8 µM [cytotoxic, single point] | Potency (Tov112D) 35.5 µM [cytotoxic, single point]
active: Potency [1] 16.4 µM | Potency (PA-1) 31.6 µM

CO[C@@H]1CC(OC2CCC3(C)C(CCC45CCC(C6=CC(=O)OC6)C(C)(CCC43)C5=O)C2)O[C@H](C)[C@@H]1O[C@@H]1O[C@H](CO[C@@H]2O[C@H](CO)[C@@H](O)[C@H](O)[C@H]2O)[C@@H](O)[C@H](O)[C@H]1O (stereo not given in full)
inconclusive: Potency [5] 1.79 µM [activator, full curve, poor fit] | Potency (HaCat) 6.93 µM [inhibitor, single point] | Potency (C33A) 5.01 µM [cytotoxic, single point] | Potency (CAOV3) 11.2 µM [cytotoxic, single point] | Potency (HeLa) 11.2 µM [cytotoxic, single point] | Potency (Hek293T) 4.47 µM [cytotoxic, single point] | Potency (JEG-3) 1.26 µM [rising, partial curve, poor fit] | Potency (PA-1) 11.2 µM [cytotoxic, single point] | Potency (SKOV3) 11.2 µM [cytotoxic, single point]
active: Potency [1] 4.37 µM | Potency (KB-3-1) 3.48 µM | Potency (Es-2) 3.16 µM | Potency (Tov112D) 2.82 µM
inactive: activity change, negative = cytotoxicity (OV90) -22.2% [at 11.6 µM]

COc1cc(C(N)=O)nc(-c2ccccn2)c1O
inconclusive: Potency [2] 23 µM [inhibitor, partial curve, poor fit] | activity change, negative = cell killing [4] -36.5% [inhibitor] | Potency [5] 21.2 µM [activator, single point] | Potency (HaCat) 2.06 µM [inhibitor, partial curve, poor fit] | Potency (KB-3-1) 29.1 µM [inhibitor, single point] | Potency (CAOV3) 39.8 µM [cytotoxic, single point] | Potency (CASKI) 39.8 µM [cytotoxic, single point]
inactive: Potency [1] | Potency (JEG-3)

COc1ccc(-n2[nH]c3c(cnc4ccccc43)c2=O)cc1
inactive: Potency [5] | outcome (HaCat) | outcome (KB-3-1) | Potency (CASKI) | Potency (Es-2) | Potency (JEG-3) | Potency (PA-1) | Potency (Tov-21-G)
active: Potency [3] 4.74 µM

CN(CC1COCCO1)S(=O)(=O)Nc1ccc2ccc3ncc(-c4cnn(C)c4)cc3c(=O)c2c1 (stereo not given)
active: Potency [1] 14.6 µM | Potency [2] 5.15 µM | Potency [4] 9.16 µM | Potency (SKOV3) 15.8 µM
inactive: Potency [3]
inconclusive: Potency (HaCat) 7.31 µM [inhibitor, partial curve, poor fit] | Potency (KB-3-1) 29.1 µM [inhibitor, single point] | Potency (CAOV3) 22.4 µM [cytotoxic, partial curve, poor fit] | Potency (PA-1) 20 µM [cytotoxic, partial curve, poor fit] | Potency (Tov-21-G) 17.8 µM [cytotoxic, partial curve] | Potency (Tov112D) 28.2 µM [cytotoxic, single point]

CO[C@@H](C)Cn1c(=O)n(C)c2cnc3ccc(-c4cncc(C(C)(C)O)c4)cc3c21
inconclusive: Potency (HaCat) 1.64 µM [inhibitor, full curve, poor fit] | Potency (C33A) 3.55 µM [cytotoxic, partial curve, poor fit] | Potency (CAOV3) 0.282 µM [cytotoxic, full curve, poor fit] | Potency (Es-2) 1.58 µM [cytotoxic, full curve, poor fit] | Potency (OV90) 0.251 µM [cytotoxic, full curve, poor fit] | Potency (SKOV3) 14.1 µM [cytotoxic, partial curve, poor fit] | Potency (Tov-21-G) 0.631 µM [cytotoxic, full curve, poor fit] | Potency (Tov112D) 1 µM [cytotoxic, full curve, poor fit]
active: Potency (KB-3-1) 0.651 µM | Potency (CASKI) 5.01 µM | Potency (Hek293T) 0.562 µM | Potency (JEG-3) 31.6 µM
